In all, about 48,000 compounds went through this assay and about 550 (1.1%) were called active. Inconclusive results (about 4%) are left out. Cut-off read from the data, not from the text of the source: active = potency below about 15 µM; inconclusive = mostly about 16 µM to 33 µM; inactive = weaker than that. The list shows a part of the results.
Potency is the fitted concentration of half-maximal effect.

Sequence of UniProt P04062 (P04062 whole entry, looked up): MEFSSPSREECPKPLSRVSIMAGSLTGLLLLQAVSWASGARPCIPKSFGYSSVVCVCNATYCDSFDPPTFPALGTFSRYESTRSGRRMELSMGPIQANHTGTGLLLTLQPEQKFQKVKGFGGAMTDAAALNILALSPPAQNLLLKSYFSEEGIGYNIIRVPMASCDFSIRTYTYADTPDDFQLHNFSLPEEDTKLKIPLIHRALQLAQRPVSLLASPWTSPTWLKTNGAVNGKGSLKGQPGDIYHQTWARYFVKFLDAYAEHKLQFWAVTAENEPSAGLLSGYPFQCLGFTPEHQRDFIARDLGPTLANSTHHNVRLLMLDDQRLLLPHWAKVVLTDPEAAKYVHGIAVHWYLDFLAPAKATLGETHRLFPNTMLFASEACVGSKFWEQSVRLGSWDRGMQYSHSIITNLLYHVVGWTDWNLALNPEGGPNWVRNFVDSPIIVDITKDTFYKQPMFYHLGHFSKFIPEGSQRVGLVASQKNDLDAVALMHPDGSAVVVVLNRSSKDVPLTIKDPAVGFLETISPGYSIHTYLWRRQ

The target in the assay is Lysosomal acid glucosylceramidase (Homo sapiens) (UniProt P04062). Put plainly: Glucocerebrosidase.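 Note: the screen sought inhibitors.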 As to conditions: purified enzyme, resorufin glucoside fluorescence (screen aimed at inhibitors), 20 min. The method in brief:
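Normal human glucocerebrosidase (0.2 nM final) was assayed with resorufin β-D-glucopyranoside (30 uM final) in 50mM citric acid/KH2PO4, 10mM sodium taurocholate, 0.01% tween-20, pH 5.9. Compounds were titrated; fluorescence (Ex 548, Em 600) read after 20 min at RT.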
Turning to `Cc1cc(C)c2c(CC(=O)Nc3nccs3)coc2c1`, the Potency was inactive: > 76.9 µM.
As to `COc1ccc(CCNC(=O)c2ccc3c(c2)NC(=O)C(N2CCOCC2)S3)cc1OC` (stereo not given), the Potency is inactive: > 76.9 µM.
For `CN=C(Nc1cc(C)nn1-c1ccccc1)c1ccccc1`, the Potency was inactive: > 76.9 µM.
Take `CCc1sc(NS(C)(=O)=O)nc1-c1ccccc1`: the Potency was inactive: > 76.9 µM.
For `CCCC(=O)Nc1ccc(C(=O)O)cc1NC(=O)CCC`, the Potency was inactive: > 76.9 µM.
In the case of `CCN(CC)CCCN1C(=O)C(O)=C(C(=O)c2cc3cccc(OC)c3o2)C1c1ccncc1` (stereo not given), the Potency was inactive: > 76.9 µM.
On to `Cc1cccc(C)c1OCc1nnc(SCC(=O)Nc2nccs2)n1-c1ccccc1`, for which the Potency is inactive: > 76.9 µM.
With `CCCn1nnnc1SCC(=O)NCc1ccc(OC)cc1`, the Potency was inactive: > 76.9 µM.
For `CC(=O)c1ccc(N2CCN(C(=O)c3cc(C)on3)CC2)cc1`, the Potency was inactive: > 76.9 µM.
Regarding `Cc1coc(C)c1C(=O)CC1(O)C(=O)N(Cc2ccccc2)c2ccccc21` (stereo not given), the Potency was inactive: > 76.9 µM.
Take `CC1(C)C(N(O)C(=O)Nc2ccccc2)N(c2cccc(Cl)c2)C(=O)N1O` (stereo not given): the Potency is inactive: > 76.9 µM.
As to `Cc1cccc(OCC(=O)OCC(=O)c2c(N)n(C)c(=O)n(C)c2=O)c1`, the Potency is inactive: > 76.9 µM.
In the case of `CC(C)CCNc1nc2c(c(=O)n(Cc3cccc(F)c3)c(=O)n2C)n1C`, the Potency was inactive: > 76.9 µM.
On to `N#Cc1cn(CC(=O)N2CCCC2)c2ccccc12`, for which the Potency is inactive: > 76.9 µM.
As for `Cc1csc(NC(=O)NC2(C(F)(F)F)Oc3ccccc3O2)n1`, the Potency was inactive: > 76.9 µM.
Regarding `Cn1nc(C(=O)N2CCCC2)c2ccccc2c1=O`, the Potency was inactive: > 76.9 µM.
Turning to `COc1ccc(NC(=O)COC(=O)c2ccc(N3CCCC3=O)cc2)cc1OC`, the Potency is inactive: > 76.9 µM.
With `CC(C)(C)c1nnc(NC(=O)C2CCN(c3ncccn3)CC2)s1`, the Potency was inactive: > 76.9 µM.
As for `Cc1cnc(C(=O)OCC(=O)NC(=O)NC(C)C)cn1`, the Potency was inactive: > 76.9 µM.
Turning to `CC(C)c1ccc(NC(=O)NC2CCCCC2)cc1`, the Potency was inactive: > 76.9 µM.
In the case of `COc1ccc(OC)c(C(=O)COC(=O)c2ccc(C)o2)c1`, the Potency was inactive: > 76.9 µM.
Take `COc1ccc(C2(CNC(=O)c3ccc(Br)o3)CCOCC2)cc1`: the Potency is inactive: > 76.9 µM.
Turning to `COC(=O)C1=C(C)N(c2ccc(Cl)c(Cl)c2)C(=O)C1`, the Potency was inactive: > 76.9 µM.
For the molecule `CCOc1ccc(N2CCn3c2nc2c3c(=O)n(CCc3ccccc3)c(=O)n2C)cc1`, the Potency is inactive: > 76.9 µM.
Take `Cc1ccc(CS(=O)(=O)CCC(=O)NCc2ccccn2)cc1`: the Potency was inactive: > 76.9 µM.
Regarding `Cc1cc(C(=O)NCc2cccs2)c(C)o1`, the Potency is inactive: > 76.9 µM.
With `CC(=O)OC1C(OC(C)=O)N(C(C)=O)C(=O)N1C(C)=O` (stereo not given), the Potency was inactive: > 76.9 µM.
In the case of `CCOc1ccc(Cn2c(SCCCCC#N)nc3c2c(=O)n(C)c(=O)n3C)cc1OCC`, the Potency is inactive: > 76.9 µM.
In the case of `Cn1c(=O)c2c(nc(NCCNC(=O)c3ccco3)n2Cc2ccc(Cl)cc2Cl)n(C)c1=O`, the Potency was inactive: > 76.9 µM.
As to `CC1=C(C#N)C(=O)N(C)C(C)(C)C1`, the Potency was inactive: > 76.9 µM.
For the molecule `Cc1ccc(-c2nn[nH]n2)cc1`, the Potency is inactive: > 76.9 µM.
As for `COc1cc(OC)cc(-c2cc3nc4c(c(N5CCN(c6cnccn6)CC5)n3n2)CCCC4)c1`, the Potency entry is “inactive”.
As for `Cc1ccccc1-c1nc2cc(N)ccc2o1`, the Potency was inactive: > 76.9 µM.
In the case of `Clc1ccc2nc(N3CCCCC3)sc2c1`, the Potency is inactive: > 76.9 µM.
With `c1ccc(-c2nnc(CN3CCCc4ccccc43)o2)cc1`, the Potency is inactive: > 76.9 µM.
As for `COc1ccc(Cc2nnc(SCC(=O)NCC3CCCO3)o2)cc1` (stereo not given), the Potency was inactive: > 76.9 µM.
The result for `O=C(Cn1cccc1C(=O)c1ccccc1)NCc1cccs1` reads inactive: > 76.9 µM.
The figure for `CCCc1nc2sc3ccccc3c(=O)c2c(=O)n1Cc1ccco1` is inactive: > 76.9 µM; for `O=c1cc(CN2CCN(c3ccc(F)cc3)CC2)nc2sccn12` it is inactive: > 76.9 µM.
The result for `CCN(CC)S(=O)(=O)c1ccc(Cl)c(C(=O)Nc2nncs2)c1` reads inactive: > 76.9 µM; that for `Cc1cc(C(=O)N2CCN(C/C=C/c3ccccc3)CC2)cs1`, inactive: > 76.9 µM; that for `CCC(C)N1C(=O)c2ccccc2C1C(=O)NC1CCCCCC1` (stereo not given), inactive: > 76.9 µM.
Consider `CCC(c1c(C)[nH]oc1=O)c1c(C)[nH]oc1=O`, for which the Potency is inactive: > 76.9 µM.
For the molecule `CC(C(=O)c1ccccc1)n1cnc2ccccc2c1=O` (stereo not given), the Potency was inactive: > 76.9 µM.
The figure for `Cc1nn(C)c(C)c1NC(=O)CN1CCC(O)(c2ccc3c(c2)OCO3)CC1` is inactive: > 76.9 µM.
With `CCN(CC)C(=O)N1CCC(NC(=O)c2ccccc2)CC1`, the Potency was inactive: > 76.9 µM.
In the case of `CCC(C)NC(=O)c1n[nH]c(=O)c2ccccc12` (stereo not given), the Potency is inactive: > 76.9 µM.
For `Cc1cc2c(s1)c1cnn(CC(=O)NCCc3ccccc3)c(=O)c1n2C`, the Potency was inactive: > 76.9 µM.
Turning to `CSCCC(NC(=O)c1cc(CC(C)C)oc1C)C(=O)O` (stereo not given), the Potency was inactive: > 76.9 µM.
For the molecule `Cc1ccc(S(=O)(=O)NCCNC(=O)c2ccccc2)cc1`, the Potency is inactive: > 76.9 µM.
Turning to `CC(=O)Cc1nsc(NC(=O)c2cc(-c3cccc(C(F)(F)F)c3)oc2C)n1`, the Potency is inactive: > 76.9 µM.
The result for `Cc1nc(NS(=O)(=O)c2cccs2)c2c3c(sc2n1)CCC3` reads inactive: > 76.9 µM.
Take `CC(C)(C)n1ncc2c(=O)n(CC(=O)NCc3ccc(F)cc3)cnc21`: the Potency is inactive: > 76.9 µM.
With `O=C1COc2ccc(C(=O)NCc3ccco3)cc2N1`, the Potency is inactive: > 76.9 µM.
As to `CCSc1cc(C2C(C#N)=C(N)OC(C)=C2C(=O)OC)c(C)o1` (stereo not given), the Potency is inactive: > 76.9 µM.
The figure for `CC1CCN(CCCNC(=O)c2coc3nc4ccccc4nc23)CC1` is inactive: > 76.9 µM; for `CC(=O)C1=C(O)C(=O)N(CCc2c[nH]c3ccccc23)C1c1ccc(O)cc1` (stereo not given) it is inactive: > 76.9 µM; for `CC(=O)NCC(=O)OCC(=O)Nc1ccc(C(C)=O)cc1` it is inactive: > 76.9 µM.
As to `O=C(NCCCC(=O)N1CCOCC1)c1cccnc1`, the Potency was inactive: > 76.9 µM.
As for `O=C(NC1CCCCC1)C1CCN(S(=O)(=O)N2CCOCC2)CC1`, the Potency was inactive: > 76.9 µM.
